# Laboratory results from the supplement of paper PMC11417369.
# ± gives the standard deviation of the averaged measurements. Some of the results follow.
# System: PfAP2-EXP AP2 domain (GST-tagged)
# Assay: gcPBM binding intensity (ln(normalized median fluorescence intensity)); higher = stronger DNA binding
# Outline: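 Binding of GST-tagged P. falciparum DNA-binding domains, expressed in E. coli and used at about 25 μg on average, was carried out for 1 h in 1× PBS containing 1% milk, 0.2 mg/ml BSA, 0.5% salmon testes DNA and 0.03% Triton X-100. The target was an Agilent 4 × 180k array of primer-extended double-stranded 36-bp intergenic genomic probes plus negative controls, read with Alexa488 anti-GST antibody at 488 nm. Binding intensity is the highest Masliner-normalised natural-log median intensity across replicate spots of either probe orientation.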
row,Sequence,gcPBM binding intensity (ln)
1,TATAATGTTGATGATAGTACGTATGAGTTCAAAAAA [XGTACX_site3651],8.7 ± 0.34
2,AAAAGAATTAATTTATGTACTAATTTCAAGAAATAA [XGTACX_site3241],8.11 ± 0.25
3,CTCGATCAAGTGTATGCATGTACCAGTGAACAAAAA [TGCATGCA_site635],9.04 ± 0.56
4,ATATATTATCAACTTACACACAGAAAACTATAATAA [CACACA_site6275],8.73 ± 0.38
5,CTTTTTCCTTTATAAAGTACTTAAAATATTTAGATA [XGTACX_site4259],8.61 ± 0.49
6,TCCTTACACACACTTTTTTTTTTTTTTTTTTCTACA [GTGCAC_negctrl_site263],8.58 ± 0.54
7,AAAAAAAAAAATAAATGTACAAAATAATGGGGAACA [XGTACX_site8723],9.01 ± 0.48
8,GTGAATGATTTAAGTACACACCGGTATTTATTCAAA [CACACA_site4950],8.6 ± 0.18
9,AAAAAAAAAAAATACACACACACATATTTATTTATA [CACACA_site6483],8.32 ± 0.48
10,TTTTTTTTTTTTTTTTGTACGAATAAACAAGTTATT [XGTACX_site5473],7.9 ± 0.58
11,TGTATTAAAAATTTGGTGCAACTTTTACATAATAAT,8.585 ± 0.078
12,ATATATATATATATATGTACATATTTTATTTAATTT [XGTACX_site1807],10.2 ± 0.28
13,AAATAAAATTATAACTGTACGTTGTATGAAATAATG [XGTACX_site5462],8.54 ± 0.36
14,TGTATATATATATAAAGTACATATAATATATATTTG [XGTACX_site5411],8.33 ± 0.31
15,CTGTTTAAAATATAAACACACATTGTTTGCTTTAGA [CACACA_site1301],8.3 ± 0.43
16,ATTTTTTTACTGCAACCATATTTTTCCCTTTTATTC [CACACA_negctrl_site1282],8.94 ± 0.47
17,GAATACACCACGCACACACACTTGAGAAAAAATAAA [CACACA_site7747],8.66 ± 0.44
18,ATTATAATTATTTTGTTGCACTATTTTTGTAGGCCA [GTGCAC_site9734],8.93 ± 0.38
19,TCTATAAAGTTCCATACATGCGCCATCATTTATATT [TGCATGCA_site195],9.01 ± 0.48
20,GTGTACATAGGTATAGCACACACAAATGTAGGTATT [CACACA_site9339],8.61 ± 0.38
21,TTTATAAAAATATACACACATACAAATATGCATATA [CACACA_site712],8.38 ± 0.4
22,GAAAAAAGGAAATAAAGAAAAAAAAAAATGAAATAT [XGTACX_negctrl_site318],8.64 ± 0.59
23,TTTCTTTTCTCAGAAATTATTCAAATGAAAAAAAAT [TGCATGCA_negctrl_site44],8.29 ± 0.45

row,Sequence,gcPBM binding intensity (ln)
1,GTCAAATTTTTGTGCACACATATATAGTTATTATTA [CACACA_site2241],9.32 ± 0.21
2,TTTATATGTATTAAGTGTACACATATAATCTATCTT [XGTACX_site4922],8.55 ± 0.29
3,TAATAATATATATGAAGTACAATAACTTTTTGTTTT [XGTACX_site292],8.21 ± 0.28
4,TTACATATGGTTAGTAGTACATATATAAATGTAAAT [XGTACX_site7206],8.62 ± 0.47
5,AAAAAAAAAAAAAAAACACACACATACACCCAAAAA [CACACA_site7910],8.75 ± 0.085
6,AAAATACACGCATACACACACACACCCACCCATATA [CACACA_site639],8.97 ± 0.67
7,CAAAGGGAAATTAACACACACATATATATATATATA [CACACA_site2453],10.1 ± 0.32
8,GTATACACATATATATGTACTTAATTATTTTATGTC [XGTACX_site6707],8.99 ± 0.48
9,GTCATAAAAACATATACACACTTGAAATATAAAAAT [CACACA_site5315],8.54 ± 0.44
10,AAACATGATTATTATAGTACAATTATAATTATTATA [XGTACX_site2590],8.14 ± 0.4
11,ATATATATATATATATGTACATATTTTTAATTATAA [XGTACX_site7444],9.86 ± 0.13
12,TTGTTTCTTAAATTATTTATTTTATATTAAAAAAAA [XGTACX_negctrl_site224],8.31 ± 0.46
13,TCGTAGTTACTATGGCAAGAAAATAAACGGTCTTGT [GTGCAC_negctrl_site684],8.87 ± 0.42
14,ATTCGTAGTTTTATGAATTAATATAATAAAAATTAA [XGTACX_negctrl_site181],8.08 ± 0.48
15,AAGAAAATGAAAAAGTAAAAACATATATTAAATATA [TGCATGCA_negctrl_site123],8.51 ± 0.41
16,TAAAAAACAAAACAGGTGCTATATAATTTTCATTTT,8.55 ± 0.11
17,ATAGAATAATATTGTAGTACTAAAAATATTCATTTT [XGTACX_site6447],8.22 ± 0.3
18,TCTATATATAAATATAAATATATATATATAATGTTA [TGCATGCA_negctrl_site92],7.88 ± 0.35
19,AAGTATATACATATATGTACACATTGTCAGATAGAA [XGTACX_site1236],8.66 ± 0.36
20,TCTTTTTGTTCGTGTACACACATGAAATTTATAAAA [CACACA_site1619],8.91 ± 0.35
21,ATTATAAATTAAAATACACACATATATACATAATAT [CACACA_site7337],8.44 ± 0.49
22,ATATATATTTATATATATATATATATATATATGTAT [GTGCAC_negctrl_site220],8.87 ± 0.085
23,AAAGAAAAAAAAAACACACACACACGCATTCAATAT [CACACA_site6169],8.65 ± 0.59

row,Sequence,gcPBM binding intensity (ln)
1,CATGTAATATTAAACACACACTCATATAACACAATA [CACACA_site65],8.59 ± 0.4
2,TCTTAGATTATTTATTGTACTTATGCTTAAAAAATT [XGTACX_site3639],8.39 ± 0.31
3,TAGTTATTTATATACACACACATACAGACAAATAAA [CACACA_site7577],8.98 ± 0.52
4,GTCCAATAAGGAAGAGTGCAAAAATTAAATAATATA [GTGCAC_site9751],8.76 ± 0.28
5,ATATTTTCTTTTTAAAGTACATATTTGATTACAATA [XGTACX_site8414],8.31 ± 0.28
6,GAAAAAAAAGAAAAAACACACATATGATATATTTAT [CACACA_site1524],8.26 ± 0.56
7,CTTTTTTTAATATGCACACATATATTTTATATATTA [CACACA_site2077],8.75 ± 0.18
8,ATATAGTATTAATTTGCATGTCATGTATTAGGTCGA [TGCATGCA_site540],8.78 ± 0.33
9,TATTCATTTATAAGCTGTACACATTAATTTGAGCTA [XGTACX_site3616],8.65 ± 0.35
10,ATTAGGATATATTAAAGTACTAATATAATACATTTT [XGTACX_site7386],8.16 ± 0.39
11,TTTTATATTTTTTGTGGTACATTTAGAGAACCAAAA [XGTACX_site1695],8.26 ± 0.34
12,TGTAAGTTGATATAATGTACATGTTTGATTTTTTTT [XGTACX_site7687],8.35 ± 0.37
13,AGATTTATACAAATATGTACACACTAAATATATATT [XGTACX_site864],8.57 ± 0.34
14,AAAAAGGGTATTATTACACACACGTAAATATTAATA [CACACA_site101],8.45 ± 0.4
15,TCTATTTTCTTATGAATGCACTAATTTATAAAACGT,8.69 ± 0.18
16,TAACTAAGGAATAATACACACAGAAATATAGATTTA [CACACA_site6293],8.41 ± 0.42
17,CAACAAAAATTATTTACACACAAAAGGCAAGGAAAT [CACACA_site1971],9.02 ± 0.49
18,TTTATAAACAAATGAACACACAAACATATATATATA [CACACA_site5713],9.86 ± 0.14
19,TTTTTTCATTAGAAAACATGCAAATGTTTTTCACTT [TGCATGCA_site127],8.3 ± 0.38
20,TTTATTTTATCATTTGCACACGCACCCAGACATAAA [CACACA_site4347],9.03 ± 0.014
21,CTATTATAATATTTTACACACCATGTAAGATATATA [CACACA_site7492],8.46 ± 0.35
22,CTCTTTTTTTGCAAAAGTACAAATGGGGATATATTT [XGTACX_site5813],8.99 ± 0.38
23,ATATATTTGATTTACACACTTACAATGTATATAAAT [CACACA_site2993],8.56 ± 0.48

row,Sequence,gcPBM binding intensity (ln)
1,AAAGAAATAAGGTGCACACATATACAGATATATATA [CACACA_site4399],9.125 ± 0.078
2,TTGTAAAAATTAATACATATATATATATATATATAT [CACACA_negctrl_site6],10 ± 0.56
3,ACTCAAACCTTTAGAGTGCAAAAAAAAAAAAAAAAA [GTGCAC_site9952],8.27 ± 0.39
4,TTACATATTTTTTAACGTACATAAATATATATGTAT [XGTACX_site8406],8.51 ± 0.27
5,TTAAATAAAAAAATAACACACATATAAATATATATG [CACACA_site3175],8.2 ± 0.34
6,ATAATTATCATAGGATGTACATATTTATTTTGTATA [XGTACX_site7797],8.46 ± 0.35
7,ATATGTTAAATTATTCGTACGTAAAAAAAAATGGAT [XGTACX_site3465],8.96 ± 0.47
8,TTCCTAAGAATAATCAGTACACATAAAAAGAACATA [XGTACX_site7861],8.71 ± 0.29
9,ACTATATATTTAATATGTACACATATTTCTGTCGAT [XGTACX_site6878],8.68 ± 0.29
10,TAATTTCATCATATTTGTTCCTTCTCAAAATTTTTT [CACACA_negctrl_site217],8.64 ± 0.64
11,GCATTATTTACCACAACACACAAATATTTACCAATC [CACACA_site2669],9.04 ± 0.27
12,TGTAAAACTGAAAAGGGTACATATAAATATATATAT [XGTACX_site69],9.285 ± 0.021
13,ATATATATATCGATCTGTACATATATTTATAGACAT [XGTACX_site4236],9.6 ± 0.11
14,ATATATTTATATTTATGTACATATCTTTATTTACGT [XGTACX_site6800],8.78 ± 0.4
15,ATTTATTTTTATATAACACACAAAGTATAATATAAC [CACACA_site3582],8.39 ± 0.36
16,TTTTTAAAAAAGTAAAGTACAAAAAAAAGGAATATC [XGTACX_site588],9.17 ± 0.44
17,ATTAGTAAGAATCATTGTACATTATAATATGTGGTA [XGTACX_site1341],8.71 ± 0.49
18,TGCTTCCTTAGGAATGTACACACATATATAATATGT [CACACA_site8048],8.47 ± 0.33
19,ACAAGAAAATATATTTGTACATATATAATTTTATTT [XGTACX_site548],8.28 ± 0.35
20,AAAGAAATACAATGATGTACATTTAAAAAAAATTAA [XGTACX_site4324],8.57 ± 0.42
